From article PMC4336329 (PLoS ONE, 2015)
Screen size: about 310,000 compounds; about 14,000 (4.5%) showed an effect of 50% or more. Effects have a minus sign here. The list shows a part of the results.

The compounds below were run against human ether-à-go-go-related gene (hERG) potassium channel (human, UniProt Q12809) (assay: primary screen, population patch clamp on CHO cells stably expressing hERG).
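Also: peak tail current of the secondary pulse compared with the same well before compound.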

human ether-à-go-go-related gene (hERG) potassium channel, sequence (Q12809 whole entry, looked up): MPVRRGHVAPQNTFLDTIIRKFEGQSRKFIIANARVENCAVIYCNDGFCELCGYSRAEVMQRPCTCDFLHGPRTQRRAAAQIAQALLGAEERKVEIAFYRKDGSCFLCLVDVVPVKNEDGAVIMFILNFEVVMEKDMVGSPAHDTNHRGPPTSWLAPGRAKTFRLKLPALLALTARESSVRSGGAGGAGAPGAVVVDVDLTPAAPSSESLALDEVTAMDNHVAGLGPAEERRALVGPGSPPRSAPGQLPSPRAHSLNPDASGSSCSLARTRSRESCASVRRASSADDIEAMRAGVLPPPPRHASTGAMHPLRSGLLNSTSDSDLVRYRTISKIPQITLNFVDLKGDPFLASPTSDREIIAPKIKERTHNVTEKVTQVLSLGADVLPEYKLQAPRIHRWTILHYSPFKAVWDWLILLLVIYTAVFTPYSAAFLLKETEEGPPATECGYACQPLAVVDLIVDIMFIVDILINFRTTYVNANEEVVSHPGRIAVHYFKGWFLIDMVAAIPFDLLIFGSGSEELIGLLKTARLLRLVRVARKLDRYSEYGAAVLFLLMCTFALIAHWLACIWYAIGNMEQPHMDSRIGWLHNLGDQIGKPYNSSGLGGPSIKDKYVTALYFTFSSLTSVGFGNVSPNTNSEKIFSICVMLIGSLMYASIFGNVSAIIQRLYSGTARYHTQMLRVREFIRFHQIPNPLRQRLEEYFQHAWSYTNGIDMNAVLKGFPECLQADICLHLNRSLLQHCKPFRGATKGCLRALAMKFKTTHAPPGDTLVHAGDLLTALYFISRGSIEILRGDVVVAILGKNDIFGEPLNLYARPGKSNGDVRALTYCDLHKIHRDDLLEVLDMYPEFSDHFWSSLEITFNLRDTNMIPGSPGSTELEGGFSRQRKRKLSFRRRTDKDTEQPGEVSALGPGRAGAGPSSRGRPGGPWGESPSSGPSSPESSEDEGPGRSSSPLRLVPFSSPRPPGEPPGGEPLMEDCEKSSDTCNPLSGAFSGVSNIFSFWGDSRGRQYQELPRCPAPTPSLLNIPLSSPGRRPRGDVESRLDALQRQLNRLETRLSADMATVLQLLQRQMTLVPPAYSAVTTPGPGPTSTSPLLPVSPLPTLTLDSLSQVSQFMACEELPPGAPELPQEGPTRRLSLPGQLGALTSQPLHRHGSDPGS

SMILES | hERG current change (%, negative = inhibition) at 10uM [%]
Cc1cccc(OCC(=O)NCC(=O)N/N=C/c2cccs2)c1 | 1.15
CCOc1ccccc1CNC(=O)C1CCN(C(=O)c2sccc2-n2cccc2)CC1 | -1.29
Cl.OCCNc1nc(NCc2ccccc2)c2ccccc2n1 | -54.6
Cc1nn(C)cc1/C=C(/C#N)C(N)=O | 9.11
O=C(Nc1ccc(N2CCOCC2)cc1)c1ccc(Cl)c(S(=O)(=O)N2CCCCC2)c1 | 13.2
COc1ccc2c(c1)c1nc3ccccc3nc1n2CCCN1C(=O)c2ccccc2C1=O | 9.7
Cc1cccc(N2C(=O)N3[C@H](c4ccc(Cl)cc4)[C@@H]4C(=O)N(C5CCCCC5)C(=O)[C@@H]4[C@]3(Cc3ccc(Cl)cc3)C2=O)c1 | 10.3
CC(C)CCNC(=O)Cc1ccccc1[N+](=O)[O-] | -2.16
O=C(NNC(=S)NC(=O)c1cccc([N+](=O)[O-])c1)c1ccc(O)cc1 | 22
Cc1cc2nc(SCC(=O)Nc3nonc3C)c3c(c2cc1C)CCCC3 | -3.87
CCN(CC)S(=O)(=O)c1ccc2c(c1)C(=NO)c1cc(S(=O)(=O)N(CC)CC)ccc1-2 | -2.31
C#Cc1ccc2c(c1)COc1c3ccccc3nn1-2 | 5.92
CCCn1c(=O)c2ccccc2n2c(SCC(=O)N3CCc4ccccc4C3)nnc12 | -23.6
COc1ccc(OCCn2cnc3ccccc32)cc1 | 0.789
COc1c(C)cc(C(=O)C2CCCN(C3CCOCC3)C2)cc1C (centres unmarked) | -15.2
O=C(NCc1ccc(Cl)cc1)c1cccc(S(=O)(=O)N2CCCC2)c1 | -30.9
O=c1c2oc3ccccc3c2ncn1Cc1ccc(Cl)cc1 | 11.7
Cc1cccc(C(=O)NCCc2nnc(SCC(=O)Nc3nc(C)cs3)n2C)c1 | -21.9
Cc1ccc(C(=O)N(CC(C)C)c2c(N)n(Cc3ccccc3)c(=O)[nH]c2=O)o1 | 9.97
CC1(C)C2CCC1(CS(=O)(=O)N1CCC(C(N)=O)CC1)C(=O)C2 (centres unmarked) | 9.59
CCCCCC(/C=N/Nc1ccc(S(=O)(=O)N2CCOCC2)cc1[N+](=O)[O-])=C\c1ccccc1 | -3.85
COC/C=C/C1=CC2=CC(=O)C(C)(OC(=O)c3cnc4ccccc4n3)C(=O)C2=CN1CCCOC(C)C (centres unmarked) | 1.69

SMILES | hERG current change (%, negative = inhibition) at 10uM [%]
O=C(COC(=O)c1c2c(nc3ccccc13)CCCCC2)c1ccc(Cl)s1 | -0.503
Cc1cc(C)c2c(c1)SC1=NC(c3ccccc3)(C(F)(F)F)NC(=O)N12 (centres unmarked) | 14.8
Cc1ccc(C)c(Cc2c(C)nc3c(C(=O)NCc4ccc5c(c4)OCO5)cnn3c2C)c1 | 9.3
CCCOC(=O)Cc1n[nH]c(=O)[nH]c1=O | 12.5
CCOc1cc(Br)c(C(=O)O)cc1OCC | 9.19
CNc1nnc(CSc2nc(C)cc(C)n2)s1 | 8.93
CC(=O)Nc1cccc(NC(=O)CSc2nc3c(=O)n(C)c(=O)n(C)c3n2C)c1 | 4.47
CCn1cc(Cl)c(C(=O)N2N=C3/C(=C/c4cccs4)CCCC3C2c2cccs2)n1 (centres unmarked) | -5.66
COc1ccc(OC)c(N2C(=O)[C@@H]3C(c4ccccc4Cl)=NO[C@@H]3C2=O)c1 | 7
CCn1nc(C(=O)NNC(=O)c2ccccc2OCc2c(C)noc2C)c2ccccc2c1=O | -20.8
CCOC(=O)CC1(NC(=O)c2cc(COc3c(F)cccc3F)on2)CCCCC1 | -1.38
Clc1ccc(CSc2ncccn2)cc1 | 3.57
COc1ccc(NCc2nnc(SCC(=O)c3ccc(OC)cc3)n2C)cc1 | 0.995
COc1ccc(CCNC(=O)C2CCCN(c3ncnc4c3nc3n4CCCCC3)C2)c(OC)c1 (centres unmarked) | -42.8
Cc1ccc(Cn2nnnc2CN2CCC(c3nc4ccc(Cl)cc4[nH]3)CC2)cc1 | 5.01
COCC[N+]1(C)CCCCC1.[I-] | 21.5
Cn1c(=O)c2c(ncn2CC(=O)Nc2nc3ccc(F)cc3s2)n(C)c1=O | -15.6
CC(C)c1ccc(C2NC(=S)NC3=C2C(=O)CC(C)(C)C3)cc1 (centres unmarked) | 0.27
COc1ccc(-c2n[nH]c(=S)n2/N=C/C=C/c2ccccc2OC)cc1 | 1.37
CC(O)c1nc2ccccc2n1CC(=O)Nc1ccc(F)cc1Cl (centres unmarked) | 14.2
CCOc1ccc(S(=O)(=O)N(C)c2ccc(OCC(=O)Nc3ccc4[nH]c(=O)[nH]c4c3)cc2)cc1 | 19.1
COC(=O)C1(S(=O)(=O)c2cccc3nsnc23)CC1 | 9.65

SMILES | hERG current change (%, negative = inhibition) at 10uM [%]
COC(=O)c1cc(Cc2ccc(N)c(C(=O)OC)c2)ccc1N | 11.5
CCC(C)N(CC(=O)Nc1cccc(C)c1C)C(=O)CCl (centres unmarked) | 10.6
Cc1ccc(NC(=O)N(Cc2nc3ccccc3c(=O)[nH]2)Cc2cccs2)cc1 | -23.7
CCCCCC1C/C(=N\O)C=C(C)C1C(=O)OC (centres unmarked) | -3.03
COC(=O)CNC(=O)C1CCN(S(=O)(=O)c2cnc[nH]2)CC1 | -1.84
Cc1ccc(NC(=O)c2cccs2)cc1S(=O)(=O)Nc1cccc(Cl)c1 | 8.25
Cc1cc(Cn2ccnc2)c(C)c([N+](=O)[O-])c1Cn1ccnc1 | -7.19
CC(C)(C)OC(=O)N1CSC[C@H]1C(=O)NC[C@H](CC(=O)O)c1ccc(Cl)cc1 | 17.6
Cc1ccc(S(=O)(=O)c2nnn3c2nc(N2CCC(C(N)=O)CC2)c2ccccc23)cc1C | -33.7
NC(=O)CSc1ncnc2c1cnn2Cc1ccccc1 | 10.8
O=C1/C(=C/c2ccccc2)SC(=S)N1N1C(=O)C2CC2C1=O (centres unmarked) | -1.95
COC(=O)c1cc2c(s1)-c1ccc(OC)cc1CC2 | 21.4
Cc1ccc(S(=O)(=O)N2CCN(S(=O)(=O)c3ccc(C)cc3)C3OCCOC32)cc1 (centres unmarked) | 4.74
CCOc1ccc2nc(SC3CC(=O)N(c4ccc(OC)cc4OC)C3=O)sc2c1 (centres unmarked) | -5.66
Cc1c(C)n2c(SCC(=O)N3CCCCCC3)nnc2[nH]c1=O | 18.8
O=[N+]([O-])c1ccccc1S(=O)(=O)Nc1ccn(Cc2c(F)cccc2Cl)n1 | 5.7
CCOC(=O)/C(=N/Nc1ccccc1OC)N1CCCc2ccccc21 | -1.38
O=C(COc1ccccc1)Nc1cccc(-c2ccc(N3CCOCC3)nn2)c1 | 0.467
CN(C)c1nc(N(C)C)n(C(=O)c2ccc(F)cc2)n1 | 4.79
O=[N+]([O-])c1ccc2c(c1)C(N1CCOCC1)/C(=C/COc1ccc(Cl)cc1Cl)O2 (centres unmarked) | -1.06
Cc1ccc(NC(=O)Cn2c(=O)oc3ccccc32)cc1Cl | 12.4
CCCCCn1c(CNC(=O)CCC)nc2ccccc21 | -44.4

SMILES | hERG current change (%, negative = inhibition) at 10uM [%]
CCN=C1Cn2c(nc3scc(-c4ccccc4)c3c2=O)CN1CC | -35.4
CC1CCN(S(=O)(=O)c2ccc(NC(=O)Cc3cccs3)cc2)CC1 | 7.13
COc1ccc(S(=O)(=O)N2CCC(N3CCN(Cc4ccccc4)CC3)CC2)cc1.O=C(O)C(=O)O | -39.2
O=S(=O)(Nc1ccccc1Br)c1cccs1 | 5.74
CC1CCCCC12NC(=O)N(CC(=O)N(C)Cc1nc3ccccc3c(=O)[nH]1)C2=O (centres unmarked) | -18.9
COc1ccc(-c2cc(C)no2)cc1S(=O)(=O)N1CCOc2ccccc21 | -10.9
CCc1ccc(NC(=S)N(CCCN2CCN(C)CC2)Cc2cccs2)cc1 | -62.5
Cc1ccc(SCCC(=O)OCn2nnc3ccccc3c2=O)cc1 | 36.9
CCNC(=O)C1CCCN1S(=O)(=O)c1ccc(C)cc1 (centres unmarked) | 11.7
O=C(NC(Cc1c[nH]c2ccccc12)C(=O)N1CCOCC1)c1cccs1 (centres unmarked) | 10.2
Cc1cc(C)c(C(=O)C(C)OC(=O)C2=COCCO2)cc1C (centres unmarked) | 8.77
Cc1c(NC(=O)c2cc(=O)[nH]c(=O)[nH]2)c(=O)n(-c2ccccc2)n1C | 5.42
Cl.O=C1CSC(c2ccc([N+](=O)[O-])cc2)N1CCN1CCCCC1 (centres unmarked) | -94.9
CC(C)(C)n1nc2c(c1NC(=O)c1ccc(Br)o1)CS(=O)C2 (centres unmarked) | 16.7
COc1ccccc1C(=O)NCCc1nc2ccccc2n1C | 2.48
O=C(Nc1cccnc1)C1(c2ccc(Cl)cc2)CCCC1 | -22.4
CN(C)c1ccc(S(=O)(=O)NCC(=O)OCC(=O)Nc2cc(Cl)cc(Cl)c2)cc1[N+](=O)[O-] | 6.75
O=C(NCN1C(=O)C2C3C=CC(C3)C2C1=O)Nc1nccs1 (centres unmarked) | 3.4
Cc1ccc(S(=O)(=O)/N=c2\ccc(Cl)cn2C(F)F)cc1 | -9.9
Cc1cc2cc(CCNC(=O)c3ccc(S(=O)(=O)N4CCOCC4)cc3)c(=O)[nH]c2cc1C | 6.3
